Measured values as given in the supplement of paper PMC10126150.
Sequences with one replicate were seen in a single cluster, so their values are uncertain.

System: ATP
Assay: switch fluorescence ratio, 500 uM ATP over buffer (Cy3 cluster intensity, sum of 5 cycles each) (fold (ratio)); higher = stronger signal-on switching upon ATP binding; sequences stand for … in TCGTCGGCAGCGTCAGATGTGTATAAGAGACAGTTTTTTTTTTTTTTTTTTTTTTTTT…TC
Conditions: aptamer strand: ATP DNA aptamer (quencher-CACCTGGGGGAGTATTGCGGAGGAAGG + anchor), 100 nM annealed; ATP concentration: 500 uM; one replicate
Procedure, shortened: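 After annealing to 100 nM quencher-labelled ATP aptamer, Cy3-labelled switching-strand clusters on a modified Illumina MiSeq flow-cell were imaged in selection buffer. A second image followed after 15 min with 500 uM ATP at 22 °C, and five such buffer/ATP cycles were done, each separated by NaOH stripping and re-annealing. The fluorescence ratio, averaged per switch-domain sequence, is summed target-cycle over summed buffer-cycle Cy3 intensity per cluster, with clusters outside 100-1000 RFU excluded.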
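Also: ATP exposure 15 min at 22 °C before imaging.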

Sequence | switch fluorescence ratio
GGCACCTAAG | 1.02
CTCGCACGAA | 1.12
TTACAGTTTC | 1.07
GGCATTTTG | 0.998
GTAGCTCCAT | 1.03
TTTGCCTCTG | 1
TCAGCTATAG | 1.44
GCATTTTGGT | 0.942
CCAAAGCCGG | 1.02
CTCCTGGTTT | 1.25
ATACTAGTTA | 1.02
TCGGGTCACA | 0.995
GGTGCATAGA | 0.982
CATAATTAAG | 1.02
AACTTTCGGT | 0.97
GTTTCAGGGT | 0.984
AAAATTCCAG | 0.993
GTTCGCTAGT | 0.966
GTTTGTTCAT | 0.978
TAACCCTATC | 1.04
GTATGGTAGA | 0.974
CTTTGCCCTC | 0.961
GCGCCGGGCC | 1.02

Sequence | switch fluorescence ratio
GGTCGCTCCC | 1
GTTCTATTAC | 1.02
TATCCGAACT | 1
ACCGGTGCCT | 1.05
TATCCTGGAA | 1.05
TTTTGCAACG | 1
ATTGCCCCTT | 1.19
CTGAGATATG | 1
ACCGCGAGTA | 1.06
TGGTCCAGGT | 1.26
CTCCGGTACG | 2.22
AGTTTGGC | 0.952
TTTTGGCACA | 1.01
AGAACGGATG | 1.03
TAGATAAAGT | 0.941
GACGTTGCGG | 0.977
CGTTACATTC | 1.04
CTCGCTTGAT | 0.989
CTTGTATCTG | 1
GAGACTATGG | 1.1
GTCGTGCCTT | 0.995
AGGACGATAA | 1.09
TGGTTGCTCG | 0.986

Sequence | switch fluorescence ratio
CTGCTTAGGG | 1.01
CGGGGTGCGC | 0.921
TTTGTCATCA | 1.01
ACTCACACGT | 1.39
TTATCGACTC | 0.945
CAAGTTCCCA | 1
TTCTTGGTTG | 1
GCTAGCGCCG | 1.11
AGTCTGCAA | 2.43
TTTTCGAACA | 1
TTCAGATTCT | 0.995
AATACTTAGA | 1.04
AACGCGTCTT | 1.05
GGTCGAAGCT | 0.971
AATTAATCAA | 1.01
AATAGAGGCG | 0.98
TACTAGGGGT | 1.01
ACGGCGGTTG | 1
ACCTGACTAT | 1.15
TTCGCCGCCC | 2.49
GGGATGTCGT | 1.05
CTATTTGACC | 1.04
CACCATAGAC | 1.23

Sequence | switch fluorescence ratio
CTTTTATTTG | 0.979
CGAGGGAGGA | 1.03
ACCGAGAGAG | 0.994
AATTTGGCTA | 1.05
CAGCAAACTT | 1.69
GGTAGAGTTT | 1.03
CCGTACAGGG | 1.12
TTGCGCACTC | 1.01
GTTCTGCGGG | 0.986
ATTTGTGGG | 0.97
GATCCTGAAG | 1
GGTCCAACA | 1
CCCGCGGGAG | 1.02
CAATTTTAAC | 1.02
ATACCGTTTG | 1.01
AGAGGTGCTG | 1.12
TAACTGTGTT | 0.981
ACATGCAATA | 1.77
AGGCGTTGTT | 1.05
CGGTCGTGAG | 1.04
TCGTTTCTGT | 0.983
AGTTGGGCGA | 0.956
GCCCGGGTCT | 0.941

Sequence | switch fluorescence ratio
GATAAGGCTG | 1.01
ACGACGGTAT | 1.35
TTTGTAGGG | 0.967
TTTAGTTGCT | 1
GGGGTAGTCT | 0.993
AGGTTTATC | 0.972
TATGTTAAAA | 1.14
TATTAGCCGC | 1.12
CCGTTTACTT | 1.33
GGGTTTTTA | 1.04
CCACCAACAA | 1.82
CTAACGGTGC | 1.09
GCTTTCGCGC | 1.03
TGATTTAATG | 0.969
CGTGTGTTAT | 0.979
TCTATTCCGT | 0.971
CAGGAGGTCA | 0.96
CCCCTAACGC | 1.2
AGCGAGTCTA | 1.02
TCCGCATGGA | 2.02
GCTTGACCCG | 1.01
TGACGGTTCG | 1.1
AGAAAGTATG | 0.998

Sequence | switch fluorescence ratio
CTGCGCGTTA | 1.12
CATGTCGCAA | 4.11
ATGTGTAGAA | 0.999
CGATAACGTT | 0.987
TACCCCAGCT | 1.14
AAGAAAGAAT | 0.96
AAGAAAGAGC | 0.967
TATGATACCT | 1.29
GTTGAATCGT | 0.988
CCTTAATGTT | 1
CAACGAACAA | 1.15
TTATAGCACT | 1.06
GGTTTACGAT | 1.02
CATTGCTTGT | 0.986
TAGAAGAACA | 1.04
CGTTGTCCGA | 1.06
TCGCTTCGCC | 1.07
TATGTCCAAG | 0.94
GGTATGCCCT | 1.04
CAGTACTCAA | 1.09
GATCTATTT | 1.04
AGACGAGGGA | 0.998
TATCGGAATT | 1.01

Sequence | switch fluorescence ratio
ACCCGTAACG | 1.08
AAAACGTAAT | 1.12
GACGGCGTGC | 1.05
TCCAAATGTG | 0.99
GCCATGGATT | 1.01
CTCGCTGATA | 1.22
TAAGTTGGT | 0.988
ATTCAGATC | 0.964
GCTGGTCTCG | 1.02
CTACCAGTTG | 1.19
GATCTTAATC | 0.94
CCATCAGCGG | 1.35
AGGGAAGTAC | 1.16
AGTCCGTGTG | 1.02
GAACCTTTTC | 1.62
ATGGCCGAAC | 1.14
CGTCTAATAA | 1.11
TTGTCTATAC | 1.56
TGGTGTTCTT | 0.988
